The source of these data is the supplement of paper PMC12217912.

B1: TEV protease; numbered along this chain (parent)
chain: MGESLFKGPRDYNPISSSICHLTNESDGHTTSLYGIGFGPFIITNKHLFRRNNGTLVVQSLHGVFKVKDTTTLQQHLVDGRDMIIIRMPKDFPPFPQKLKFREPQREERICLVTTNFQTKSMSSMVSDTSCTFPSGDGIFWKHWIQTKDGQCGSPLVSTRDGFIVGIHSASNFTNTNNYFTSVPKNFMELLTNQEAQQWVSGWRLNADSVLWGGHKVFMVKPEEPFQPVKEATQL

In this assay the parent is B1. Put plainly: raw area under fraction-flipped curve 0-4 h after induction (AUC4h, not background-subtracted), DNA-recorder readout of cleavage of the substrate (dimensionless); higher = more cleavage of the substrate by the protease variant. To be noted: temperature: 34 °C; time window: 0-4 h after rhamnose induction. Here is the method: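 In vivo DNA recorder in E. coli TOP10(DE3) ΔrhaA at 34 °C. Each TEVp single-site mutant (parent TEVp 0) is paired with a single-site variant of the 7-mer TEVs (canonical ENLYFQ|S). The substrate sits between flexible linkers in a Bxb1-sfGFP-TEVs-SsrA fusion, so cleavage stabilises Bxb1 and speeds flipping of a recombination array, read by NGS. The value is the raw area under the fraction-flipped curve over 0-4 h after rhamnose induction (AUC4h), with ≥20 reads per time point. It is not background-subtracted; inactive controls average about 0.047.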

The other results are listed elsewhere or left out. The full chains were built here from the parent and the listed change. Values near 0.05 are background.
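Further: Bxb1 expression induced with 0.2% (w/v) L-rhamnose at OD600 near 0.5, cultures sampled hourly, flipped fraction per protease–substrate barcode pair counted by paired-end Illumina sequencing.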

MGESLFKGPRDYNPISSSICHLTNESDGHTTSLYGIGFGPFIITNKHLFRRNNGTLVVQSLHGVFKVKDTTTLQQHLVDGRDMIIIRMPKDFPPFPHKLKFREPQREERICLVTTNFQTKSMSSMVSDTSCTFPSGDGIFWKHWIQTKDGQCGSPLVSTRDGFIVGIHSASNFTNTNNYFTSVPKNFMELLTNQEAQQWVSGWRLNADSVLWGGHKVFMVKPEEPFQPVKEATQL [Q97H]: the “area with substrate ENLAFQS” value came to 0.0574, the “area with substrate ENLDFQS” value was determined as 0.0461, the “area with substrate ENLEFQS” value worked out at 0.0499 and the “area with substrate ENLFFQS” value amounted to 0.0752. The “area with substrate ENLIFQS” value is 0.0816, the “area with substrate ENLKFQS” value was 0.069, the “area with substrate ENLNFQS” value turned out to be 0.0524 and the “area with substrate ENLSFQS” value is 0.0521. Besides, the “area with substrate ENLWFQS” value worked out at 0.0663.

Turning to MGESLFKGPRDYNPISSSICHLTNESDGHTTSLYGIGFGPFIITNKHLFRRNNGTLVVQSLHGVFKVKDTTTLQQHLVDGRDMIIIRMPKDFPPFPAKLKFREPQREERICLVTTNFQTKSMSSMVSDTSCTFPSGDGIFWKHWIQTKDGQCGSPLVSTRDGFIVGIHSASNFTNTNNYFTSVPKNFMELLTNQEAQQWVSGWRLNADSVLWGGHKVFMVKPEEPFQPVKEATQL [Q97A], the “area with substrate ENLAFQS” value came to 0.0558, the “area with substrate ENLDFQS” value came to 0.0579, the “area with substrate ENLFFQS” value worked out at 0.0667 and the “area with substrate ENLHFQS” value turned out to be 0.0862. Also, the “area with substrate ENLKFQS” value was determined as 0.0859, the “area with substrate ENLRFQS” value was 0.092, the “area with substrate ENLSFQS” value stood at 0.0651 and the “area with substrate ENLWFQS” value came out at 0.0678.

On to MGESLFKGPRDYNPISSSICHLTNESDGHTTSLYGIGFGPFIITNKHLFRRNNGTLVVQSLHGVFKVKDTTTLQQHLVDGRDMIIIRMPKDFPPFPQKRKFREPQREERICLVTTNFQTKSMSSMVSDTSCTFPSGDGIFWKHWIQTKDGQCGSPLVSTRDGFIVGIHSASNFTNTNNYFTSVPKNFMELLTNQEAQQWVSGWRLNADSVLWGGHKVFMVKPEEPFQPVKEATQL [L99R], for which the “area with substrate ENLAFQS” value came out at 0.0575, the “area with substrate ENLCFQS” value was 0.0791, the “area with substrate ENLDFQS” value came to 0.133 and the “area with substrate ENLEFQS” value is 0.0642. Also, the “area with substrate ENLFFQS” value turned out to be 0.082, the “area with substrate ENLHFQS” value stood at 0.0674, the “area with substrate ENLIFQS” value amounted to 0.0787 and the “area with substrate ENLKFQS” value was determined as 0.104. Moreover, the “area with substrate ENLLFQS” value is 0.053, the “area with substrate ENLNFQS” value turned out to be 0.0667, the “area with substrate ENLQFQS” value amounted to 0.0764 and the “area with substrate ENLRFQS” value came out at 0.0795. In addition, the “area with substrate ENLSFQS” value turned out to be 0.0537 and the “area with substrate ENLWFQS” value was found to be 0.077.

In the case of MGESLFKGPRDYNPISSSICHLTNESDGHTTSLYGIGFGPFIITNKHLFRRNNGTLVVQSLHGVFKVKDTTTLQQHLVDGRDMIIIRMPKDFPPFPQKQKFREPQREERICLVTTNFQTKSMSSMVSDTSCTFPSGDGIFWKHWIQTKDGQCGSPLVSTRDGFIVGIHSASNFTNTNNYFTSVPKNFMELLTNQEAQQWVSGWRLNADSVLWGGHKVFMVKPEEPFQPVKEATQL [L99Q], the “area with substrate ENLAFQS” value is 0.0565, the “area with substrate ENLCFQS” value worked out at 0.0597, the “area with substrate ENLDFQS” value came to 0.0578 and the “area with substrate ENLHFQS” value worked out at 0.0602. For the same variant, the “area with substrate ENLKFQS” value came out at 0.0771, the “area with substrate ENLNFQS” value turned out to be 0.0877 and the “area with substrate ENLPFQS” value is 0.0634.

Regarding MGESLFKGPRDYNPISSSICHLTNESDGHTTSLYGIGFGPFIITNKHLFRRNNGTLVVQSLHGVFKVKDTTTLQQHLVDGRDMIIIRMPKDFPPFPQKLKFREPQREERICLVTTNEQTKSMSSMVSDTSCTFPSGDGIFWKHWIQTKDGQCGSPLVSTRDGFIVGIHSASNFTNTNNYFTSVPKNFMELLTNQEAQQWVSGWRLNADSVLWGGHKVFMVKPEEPFQPVKEATQL [F117E], the “area with substrate ENLAFQS” value turned out to be 0.0571, the “area with substrate ENLDFQS” value worked out at 0.0667, the “area with substrate ENLFFQS” value came to 0.0804 and the “area with substrate ENLGFQS” value was found to be 0.0539. The “area with substrate ENLIFQS” value worked out at 0.0796, the “area with substrate ENLKFQS” value was found to be 0.083, the “area with substrate ENLLFQS” value was found to be 0.079 and the “area with substrate ENLMFQS” value was found to be 0.0658. Further, the “area with substrate ENLNFQS” value stood at 0.0507, the “area with substrate ENLPFQS” value was determined as 0.0759, the “area with substrate ENLQFQS” value was 0.0789 and the “area with substrate ENLSFQS” value is 0.0728. The “area with substrate ENLVFQS” value was 0.0632.

For the variant MGESLFKGPRDYNPISSSICHLTNESDGHTTSLYGIGFGPFIITNKHLFRRNNGTLVVQSLHGVFKVKDTTTLQQHLVDGRDMIIIRMPKDFPPFPQKLKFREPQREERICLVTYNFQTKSMSSMVSDTSCTFPSGDGIFWKHWIQTKDGQCGSPLVSTRDGFIVGIHSASNFTNTNNYFTSVPKNFMELLTNQEAQQWVSGWRLNADSVLWGGHKVFMVKPEEPFQPVKEATQL [T115Y], the “area with substrate ENLAFQS” value amounted to 0.0774, the “area with substrate ENLDFQS” value was 0.0628, the “area with substrate ENLFFQS” value was found to be 0.0864 and the “area with substrate ENLMFQS” value turned out to be 0.0559. Besides, the “area with substrate ENLNFQS” value was determined as 0.0873, the “area with substrate ENLPFQS” value is 0.0569, the “area with substrate ENLQFQS” value stood at 0.0711 and the “area with substrate ENLRFQS” value was 0.0571. The “area with substrate ENLSFQS” value worked out at 0.0549 and the “area with substrate ENLWFQS” value was found to be 0.0573.

For MGESLFKGPRDYNPISSSICHLTNESDGHTTSLYGIGFGPFIITNKHLFRRNNGTLVVQSLHGVFKVKDTTTLQQHLVDGRDMIIIRMPKDFPPFPQKLKFREPQREERICLVRTNFQTKSMSSMVSDTSCTFPSGDGIFWKHWIQTKDGQCGSPLVSTRDGFIVGIHSASNFTNTNNYFTSVPKNFMELLTNQEAQQWVSGWRLNADSVLWGGHKVFMVKPEEPFQPVKEATQL [T114R], the “area with substrate ENLAFQS” value turned out to be 0.0651, the “area with substrate ENLDFQS” value is 0.0739, the “area with substrate ENLFFQS” value was 0.114 and the “area with substrate ENLGFQS” value came out at 0.0781. Also, the “area with substrate ENLHFQS” value worked out at 0.069, the “area with substrate ENLIFQS” value came out at 0.0037, the “area with substrate ENLKFQS” value is 0.0797 and the “area with substrate ENLLFQS” value was 0.089. Besides, the “area with substrate ENLNFQS” value amounted to 0.0502, the “area with substrate ENLPFQS” value was found to be 0.0416, the “area with substrate ENLQFQS” value is 0.0764 and the “area with substrate ENLRFQS” value was determined as 0.0791. Moreover, the “area with substrate ENLSFQS” value came to 0.0601.

Regarding MGESLFKGPRDYNPISSSICHLTNESDGHTTSLYGIGFGPFIITNKHLFRRNNGTLVVQSLHGVFKVKDTTTLQQHLVDGRDMIIIRMPKDFPPFPQKLKFREPQREELICLVTTNFQTKSMSSMVSDTSCTFPSGDGIFWKHWIQTKDGQCGSPLVSTRDGFIVGIHSASNFTNTNNYFTSVPKNFMELLTNQEAQQWVSGWRLNADSVLWGGHKVFMVKPEEPFQPVKEATQL [R109L], the “area with substrate ENLAFQS” value worked out at 0.0722, the “area with substrate ENLCFQS” value is 0.0601, the “area with substrate ENLEFQS” value is 0.0523 and the “area with substrate ENLHFQS” value worked out at 0.0657. The “area with substrate ENLIFQS” value came to 0.0666, the “area with substrate ENLMFQS” value came to 0.0619, the “area with substrate ENLNFQS” value worked out at 0.0652 and the “area with substrate ENLPFQS” value stood at 0.0496. Besides, the “area with substrate ENLQFQS” value was found to be 0.0508 and the “area with substrate ENLVFQS” value is 0.102.

MGESLFKGPRDYNPISSSICHLTNESDGHTTSLYGIGFGPFIITNKHLFRRNNGTLVVQSLHGVFKVKDTTTLQQHLVDGRDMIIIRMPKDFPPFPQNLKFREPQREERICLVTTNFQTKSMSSMVSDTSCTFPSGDGIFWKHWIQTKDGQCGSPLVSTRDGFIVGIHSASNFTNTNNYFTSVPKNFMELLTNQEAQQWVSGWRLNADSVLWGGHKVFMVKPEEPFQPVKEATQL [K98N]: the “area with substrate ENLAFQS” value worked out at 0.0473, the “area with substrate ENLCFQS” value was determined as 0.0702, the “area with substrate ENLDFQS” value was 0.0632 and the “area with substrate ENLEFQS” value turned out to be 0.0593. Further, the “area with substrate ENLFFQS” value worked out at 0.0792, the “area with substrate ENLHFQS” value was 0.068, the “area with substrate ENLKFQS” value is 0.0692 and the “area with substrate ENLLFQS” value turned out to be 0.0868. Further, the “area with substrate ENLNFQS” value came to 0.0778, the “area with substrate ENLPFQS” value stood at 0.0594, the “area with substrate ENLQFQS” value stood at 0.0661 and the “area with substrate ENLRFQS” value is 0.0754. Further, the “area with substrate ENLSFQS” value was 0.0804, the “area with substrate ENLVFQS” value turned out to be 0.0903 and the “area with substrate ENLWFQS” value is 0.0803.

Regarding MGESLFKGPRDYNPISSSICHLTNESDGHTTSLYGIGFGPFIITNKHLFRRNNGTLVVQSLHGVFKVKDTTTLQQHLVDGRDMIIIRMPKDFPPFPQPLKFREPQREERICLVTTNFQTKSMSSMVSDTSCTFPSGDGIFWKHWIQTKDGQCGSPLVSTRDGFIVGIHSASNFTNTNNYFTSVPKNFMELLTNQEAQQWVSGWRLNADSVLWGGHKVFMVKPEEPFQPVKEATQL [K98P], the “area with substrate ENLAFQS” value stood at 0.0599, the “area with substrate ENLCFQS” value was 0.0804, the “area with substrate ENLDFQS” value is 0.0548 and the “area with substrate ENLEFQS” value was 0.0571. The “area with substrate ENLFFQS” value was found to be 0.0752, the “area with substrate ENLGFQS” value was 0.0738, the “area with substrate ENLHFQS” value was found to be 0.0642 and the “area with substrate ENLIFQS” value came out at 0.0791. Further, the “area with substrate ENLKFQS” value worked out at 0.0714, the “area with substrate ENLLFQS” value amounted to 0.0763, the “area with substrate ENLMFQS” value came out at 0.0635 and the “area with substrate ENLNFQS” value came to 0.0606. For the same variant, the “area with substrate ENLQFQS” value was 0.0567, the “area with substrate ENLRFQS” value is 0.0789, the “area with substrate ENLSFQS” value was found to be 0.0624 and the “area with substrate ENLTFQS” value is 0.06. Further, the “area with substrate ENLVFQS” value was found to be 0.0671 and the “area with substrate ENLWFQS” value was found to be 0.0669.
